From PMC4336329 (PLoS ONE, 2015)
About 2,200 (0.71%) of roughly 310,000 compounds showed an effect of 50% or more. Effects have a minus sign here. This is one part of the list.

biological target: human ether-à-go-go-related gene (hERG) potassium channel (human, UniProt Q12809); experiment: primary screen, population patch clamp on CHO cells stably expressing hERG
Sequence (Q12809 whole entry, looked up): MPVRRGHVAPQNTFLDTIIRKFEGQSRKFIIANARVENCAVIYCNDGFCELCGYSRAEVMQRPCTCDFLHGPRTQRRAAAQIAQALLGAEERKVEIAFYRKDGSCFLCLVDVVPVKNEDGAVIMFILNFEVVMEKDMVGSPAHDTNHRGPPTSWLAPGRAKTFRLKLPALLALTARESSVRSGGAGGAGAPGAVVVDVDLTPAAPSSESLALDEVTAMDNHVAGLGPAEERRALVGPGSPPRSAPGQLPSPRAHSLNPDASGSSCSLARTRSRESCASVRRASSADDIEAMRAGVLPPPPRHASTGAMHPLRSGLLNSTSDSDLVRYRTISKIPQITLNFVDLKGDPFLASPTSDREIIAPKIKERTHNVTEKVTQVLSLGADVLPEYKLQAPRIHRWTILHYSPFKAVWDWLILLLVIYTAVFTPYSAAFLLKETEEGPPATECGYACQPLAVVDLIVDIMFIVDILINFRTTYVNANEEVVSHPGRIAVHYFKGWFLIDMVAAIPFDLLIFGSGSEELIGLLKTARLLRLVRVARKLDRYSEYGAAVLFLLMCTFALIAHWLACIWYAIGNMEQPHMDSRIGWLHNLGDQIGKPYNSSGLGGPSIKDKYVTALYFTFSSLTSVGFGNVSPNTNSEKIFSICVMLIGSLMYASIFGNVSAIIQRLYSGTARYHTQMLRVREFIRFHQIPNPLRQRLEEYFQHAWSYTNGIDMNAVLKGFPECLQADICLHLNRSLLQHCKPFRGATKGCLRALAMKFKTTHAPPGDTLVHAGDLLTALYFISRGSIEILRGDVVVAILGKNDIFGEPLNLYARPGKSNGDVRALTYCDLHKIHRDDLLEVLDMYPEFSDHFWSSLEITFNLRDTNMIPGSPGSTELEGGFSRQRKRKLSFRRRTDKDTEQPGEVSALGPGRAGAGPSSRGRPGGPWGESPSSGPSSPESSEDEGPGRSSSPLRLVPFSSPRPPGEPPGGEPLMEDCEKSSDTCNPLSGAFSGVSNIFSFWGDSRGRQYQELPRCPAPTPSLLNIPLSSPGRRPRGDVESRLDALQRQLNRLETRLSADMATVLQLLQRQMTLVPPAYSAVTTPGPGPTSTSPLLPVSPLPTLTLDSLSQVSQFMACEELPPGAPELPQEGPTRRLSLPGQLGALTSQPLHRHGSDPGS

Row | SMILES | hERG current change (%, negative = inhibition) at 1uM [%]
1 | Cc1csc(NC(=O)c2cncc(Br)c2)n1 | 4.03
2 | CCOc1cccc(CN2CCN(CCc3ccccc3)C(CCO)C2)c1O (centres unmarked) | -20.1
3 | CCN(CC)c1ccc(/C=N/NC(=O)c2ccc([N+](=O)[O-])cc2)cc1 | 16.9
4 | Cc1onc(-c2ccccc2)c1C(=O)Nc1cccc(S(=O)(=O)NC2=NCCC2)c1 | 10.7
5 | CC12CCC(=O)N1C(C(=O)Nc1nnc(SCc3ccc(F)cc3)s1)CS2 (centres unmarked) | 10.1
6 | CC(C)[C@H](NC(=O)c1ccco1)C(=O)Nc1ccc(OC(F)F)cc1 | 3.79
7 | CC(C)(C)C(=O)C1=C(O)C(=O)N(c2ccccc2)C1c1ccccc1 (centres unmarked) | 13
8 | CCOc1ccc(NS(=O)(=O)c2ccc3[nH]cc(C(=O)NCC4CCCO4)c(=O)c3c2)cc1 (centres unmarked) | 12.6
9 | Cc1cc(-c2csc(NC(=O)c3ccc(=O)n(C)n3)n2)c(C)n1CC1CCCO1 (centres unmarked) | 12.9
10 | O=C(Nc1ccc(Cl)cc1)NC1CCCc2ccccc21 (centres unmarked) | 4.7
11 | O=C(NCCc1c[nH]c2ccccc12)c1c(Cl)nc2sccn12 | 8.51
12 | Cc1noc(NS(=O)(=O)c2ccc(NC(=O)CCn3c(=O)oc4ccccc43)cc2)c1C | 2.45
13 | CN1CCN(C(=O)CN(c2cccc(Br)c2)S(=O)(=O)c2ccccc2)CC1 | 6.15
14 | COc1ccc(C2(C(=O)c3ccccc3)C(=O)c3ccccc3C2=O)cc1 | 13.4
15 | COCCCNCCCCSc1ccc(Cl)cc1 | -4.64
16 | CCN(CC)CCn1c(/N=C/c2cc(Br)ccc2O)nc2ccccc21 | -2.13
17 | CC(=O)N1C(C)(C)CC(=NOC(=O)c2ccc(C)cc2)CC1(C)C | 7.05
18 | Cc1ccc(CN2CCN(c3ccccn3)CC2)s1.O=C(O)C(=O)O | -7.24
19 | CC(=O)c1ccc(Nc2nc(N3CCOCC3)nc(N3CCOCC3)n2)cc1 | 3.41
20 | O=C(COC(=O)/C=C/c1cccc(Cl)c1Cl)Nc1ccc2[nH]c(=O)[nH]c2c1 | 16.7
21 | Cc1nnc(SCC(=O)Nc2ccc(N3CCOCC3)cc2)o1 | 11.1
22 | CCC(C)(C)n1nnnc1C(c1ccc(C)cc1)N1CCN(C(=O)c2ccco2)CC1 (centres unmarked) | -0.134

Row | SMILES | hERG current change (%, negative = inhibition) at 1uM [%]
23 | Cc1ccc(Sc2nc3c(c(=O)[nH]c(=O)n3C)n2CCc2ccccc2)cc1 | 12.8
24 | CC(=O)Nc1nc(-c2ccc(Cl)cc2)ns1 | 0.391
25 | N#Cc1ccc(C(=O)Nc2nc(-c3cccs3)c(C(=O)C(F)(F)F)s2)cc1 | -18.6
26 | CC1(C)C(c2ccccc2)=NC(c2cccnc2)N1O (centres unmarked) | 8.67
27 | Cc1ccc(Cl)cc1N1CCN(C(=O)CNC(=O)c2ccc(Br)o2)CC1 | 4.64
28 | CC(C(=O)N1CCCC1)N1CCN(c2ccccc2O)CC1 (centres unmarked) | 14.2
29 | O=C(Nc1ccccc1Cl)N1CCN(c2ccc3nnc(-c4ccccc4)n3n2)CC1 | -23.8
30 | CCC1C(c2ccccc2)NC(c2ccccc2)CC1(O)c1ccc(F)cc1.Cl (centres unmarked) | 15.5
31 | COC(=O)CSc1nnc(CNS(=O)(=O)c2ccc(Br)cc2)n1C | 12.1
32 | CCN1CCN(Cc2ccc(NC(=O)c3cc(NC(=O)c4nccnc4N)cc(OC)c3)cc2C(F)(F)F)CC1 | 16.7
33 | Cc1ccc(Nc2ccccc2)cc1 | 13
34 | COc1cc(OC)cc(C(=O)Nc2cccc(NC(=O)c3ccccc3)c2)c1 | -9.38
35 | CC(=O)Nc1cccc(C(=O)/C=C/c2ccco2)c1 | 13.5
36 | O=C(c1ccc([N+](=O)[O-])cc1[N+](=O)[O-])n1cnc2ccccc21 | 5.85
37 | Cc1cccc(NC(=O)c2nc[nH]c2C(=O)N[C@@H](C)C(=O)OCc2ccccc2)c1 | 12.4
38 | O=C(CN1C(=O)C2C3C=CC(C3)C2C1=O)Nc1ccc(C(=O)O)cc1 (centres unmarked) | 7.4
39 | O=C(Cn1ccc2ccccc2c1=O)Nc1ccc2c(c1)OCO2 | 12
40 | O=[N+]([O-])c1ccccc1/C=C/C=N/n1c(-c2ccc(Cl)cc2)n[nH]c1=S | 13.2
41 | CC(C)NC(=O)NC(=O)CSc1nnc(-c2ccccc2F)n1N | 6.05
42 | COc1ccccc1NC(=O)C[n+]1ccccc1.[Cl-] | 10.9
43 | O=C(CCCCCN1C(=O)c2ccccc2C1=O)Nc1ccc(C(=O)O)cc1 | 11.6
44 | Cc1cc(=O)oc2cc(OCC(=O)OC(C)C(=O)NC3CCCC3)ccc12 (centres unmarked) | 10.5
